Experimental data reported in the supplement of paper PMC3334620.
Over roughly 33,000 sequences, “E-score (-0.5 to 0.5)” has its median near -0.041; the highest 2% begin near 0.37. The list shows a part of the results.

Target: T1, Ecm22 (UniProt Q05958)
T1 sequence: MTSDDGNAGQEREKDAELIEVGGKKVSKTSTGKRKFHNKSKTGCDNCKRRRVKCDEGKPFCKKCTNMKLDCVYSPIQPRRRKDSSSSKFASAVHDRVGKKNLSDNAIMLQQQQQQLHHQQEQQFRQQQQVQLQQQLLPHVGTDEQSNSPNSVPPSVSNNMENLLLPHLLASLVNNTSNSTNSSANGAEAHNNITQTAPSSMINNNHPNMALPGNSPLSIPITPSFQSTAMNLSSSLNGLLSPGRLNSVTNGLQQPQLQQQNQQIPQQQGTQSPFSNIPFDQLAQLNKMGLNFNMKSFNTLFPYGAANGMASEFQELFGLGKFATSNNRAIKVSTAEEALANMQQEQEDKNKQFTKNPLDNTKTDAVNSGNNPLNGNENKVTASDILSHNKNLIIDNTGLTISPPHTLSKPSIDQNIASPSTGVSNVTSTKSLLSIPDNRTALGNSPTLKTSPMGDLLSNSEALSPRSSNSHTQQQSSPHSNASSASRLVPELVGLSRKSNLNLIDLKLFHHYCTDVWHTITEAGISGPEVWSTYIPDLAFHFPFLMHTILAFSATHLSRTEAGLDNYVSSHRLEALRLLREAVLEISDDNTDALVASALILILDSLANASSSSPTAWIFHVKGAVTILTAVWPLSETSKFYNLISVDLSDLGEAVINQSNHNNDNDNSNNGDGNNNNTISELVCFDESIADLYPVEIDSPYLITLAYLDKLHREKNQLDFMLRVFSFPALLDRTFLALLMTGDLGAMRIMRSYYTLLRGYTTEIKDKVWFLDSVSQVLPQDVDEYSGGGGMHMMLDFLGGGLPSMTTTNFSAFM
Test: PBM E-score (8-mer binding enrichment) (E-score (-0.5 to 0.5)); higher = stronger / more preferred TF binding; most listed sequences are background and not binding sites
Settings: protein concentration: 200 nM; construct: GST-full length
Summary of the method: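 Universal all-10-mer Agilent arrays, double-stranded by primer extension on fresh or once-stripped slides, were probed with about 100-200 nM GST-tagged yeast transcription factors made by PURExpress. Fluorescent anti-GST detected bound protein, and masliner normalised the scans. E-scores from the Universal PBM Analysis Suite were given to each ungapped eight-base word pooled with its reverse complement.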

Sequence | PBM E-score
CCAAGGAC | -0.302
CAAGCTGC | -0.191
AGTGCTAC | -0.0395
AGAATTGC | -0.0838
TGAGCAAA | -0.0534
TCGATCAA | 0.0228
AGAACGCA | 0.0964
CAATATAC | 0.271
CTCGCGTC | 0.255
CCGGCGTC | -0.111
ACCGCATA | 0.0853
AGTTGACA | -0.0923
ACACCGAT | -0.0233
GCTCATCA | -0.207
CCTACATC | -0.158
ACAGACAC | -0.0505
GCCATCCC | -0.216
CGTGCTTA | -0.0539
ACTATTCT | -0.046
GCCGGCCA | -0.194
ACTCAACC | -0.0151
AATTCCGG | -0.146
AGTCAGTC | -0.215
GAGCTAAC | -0.0583

Sequence | PBM E-score
ACCCCAAT | -0.183
CGATGCCG | -0.022
CCCATCCA | -0.0635
CAAAGCAA | 0.0515
CGAGCGGC | 0.129
ATAATTTC | -0.128
GCTCCTCA | -0.0874
AGTCAGTA | 0.0758
GCCAAACC | -0.169
GTGAGACA | -0.198
ATCCTATC | -0.176
AGTCCTTC | -0.189
ATAGGAAA | -0.0768
CCGAAGAA | -0.0228
ACGAACCC | 0.28
TATACTCA | 0.163
TGAGACCA | -0.22
ATCTGTTG | -0.132
GCGCTATA | 0.0306
AGCTGCGG | -0.00448
CACGTTAA | 0.00208
ACAGATCG | 0.0553
AAGCCTAG | -0.114
CTGCACGC | -0.199

Sequence | PBM E-score
AAAGCTCA | -0.106
AGACAATC | -0.0209
AGTCCCGG | -0.149
CTTAACAA | -0.0675
GAAACCCA | -0.0172
GCGCTCAC | 0.0474
ACAATGGG | -0.108
CGTCTGTA | 0.0138
AGTATAAA | 0.241
GAGCGGGC | -0.0404
ATGGGCAC | -0.0719
AGGATGAA | -0.0912
CTAGGACC | -0.182
AGTAGAGA | -0.05
CCCGCGTA | 0.0524
CCCGACAA | 0.156
TACCGGAA | 0.0329
CTCGGTAC | 0.295
CAGGCTCG | 0.184
CTAACTAC | -0.216
GTCCCAAA | -0.0581
TCACGTGA | 0.0673
GCGACTCA | 0.0467
GAAAATTA | -0.0128

Sequence | PBM E-score
GGAACAAA | 0.184
GTAGGACA | -0.069
CCGACGGA | 0.0916
CATTTGAC | -0.322
ACGGCAAT | 0.189
CTTGAGCA | -0.297
CGGAATCC | -0.0534
CTCGTGCA | 0.0759
CGCGATAC | 0.244
AATCCATA | 0.0592
AGAATCAC | -0.125
CCACGTCG | 0.0388
ACAACGGG | 0.152
GCTTACTA | -0.087
ACTCACCG | -0.0985
CCAGGCTA | -0.199
CGACTAGA | 0.0469
ACAAGAAA | -0.108
ACCAGGAC | -0.0501
AGGCGAGA | -0.144
AGAATGAG | -0.208
CGTAGGAC | 0.042
